Experimental data as given in paper PMC12136788.
This is one part of the list.

B1: chr8:122973292:122973393:+|3pUTR|ENSG00000178764|msi1|FALSE|unique (ssRNA)
RNA: GGGAGUUCUACAGUCCGACGAUCAGAGAUGGUCUCUCCCCAGCCAUGGGCCACCCUUGCCAGUGACUCCAAGUGGAACUACUUAGCUCGCGUGUGCCUGGAGGGUGCGGGAAGUCCAGCGACUCUCAGACGCACCUCCCAGAGCAACAGAGGAUUGAGCAUCA
B2: ENSG00000070961:be:win_6301|3pUTR|ENSG00000070961|bound_else_gene|NA|bound_elsewhere_windowed (ssRNA)
RNA: GGGAGUUCUACAGUCCGACGAUCUGAGUUACUCCUUGUCAUCUUACAAAUAUGUGAUAUGGUAAUUUUCAUAACAGAUGUCAGUUUUGAACCAAGAAUUGGUGAUUUGUUUAUAAGAAAAAAACUGGCUUCAUUUCUGUGAAACAACAGAGGAUUGAGCAUCA
B3: chr22:49888080:49888186:+|3pUTR|ENSG00000100426|unk|FALSE|unique (ssRNA)
RNA: GGGAGUUCUACAGUCCGACGAUCUGGCUUAUUAACAGGGAAGAAGCUUGUUAUAUUCCAGUUGUAAGAAUAGCCUUAGUGUUUAGAUUUUUUUAUGAUAGGGAAGAUGCGGCCAUCACUGGGAUAUUUUCAAAUCCCAAGGACCAACAGAGGAUUGAGCAUCA
B4: chr5:14398947:14399058:+|CDS|ENSG00000038382|unk|FALSE|unique (ssRNA)
RNA: GGGAGUUCUACAGUCCGACGAUCCCCAAAAACCUUAAUUCGAAAGGGUCGAGAACGGCAUCUCUUCCUUUUUGAAAUGUCCUUAGUAUUUAGUAAAGAAGUGAAAGAUUCCAGUGGGAGAAGCAAGUACCUUUAUAAAAGCAACAACAGAGGAUUGAGCAUCA
B5: chr10:87746157:87746259:+|3pUTR|ENSG00000198682|unk|total|mutant (ssRNA)
RNA: GGGAGUUCUACAGUCCGACGAUCAACUGAAGACCAAAUCUCCGCAGGUAAAAGCAAUAUUCUUAUACAUUUCAUAAUAAAAUCCGCUCUAUGUAUUUUCUACUGCACCUGAGCAGGCAGGUCCCAGAUUUCUUAAGGCUUUGUCAACAGAGGAUUGAGCAUCA
B6: chr11:62888716:62888817:+|3pUTR|ENSG00000168003|unk|total|mutant (ssRNA)
RNA: GGGAGUUCUACAGUCCGACGAUCUUUUCUCUUUUUUAAAAACAAACAAACAAACUGUUGCAGAUUAUGAGUGAACCCCCAAACCGGGUGUUUUCUGCCUUCAAAUAAAAGUCACCCCUGCAUGGUGAAGUCUUCCCUCUGCUUCAACAGAGGAUUGAGCAUCA
B7: chr7:114979563:114979664:+|CDS|ENSG00000135272|unk|FALSE|unique (ssRNA)
RNA: GGGAGUUCUACAGUCCGACGAUCCCAACCUCAGCGCUUGCCUCAGCUUCAGACUUCAGCCCAGGUGCCAAGUGGUGAGGAAAUAGGCAAGAUAAAGAACGGCCACACAGGUCUGAGCAAUGGAAAUGGAAUUCACCACGGGGCCAACAGAGGAUUGAGCAUCA
B8: chr8:103427116:103427218:+|CDS|ENSG00000164934|unk|FALSE|bound_elsewhere (ssRNA)
RNA: GGGAGUUCUACAGUCCGACGAUCGUAUACUGGGAUUGAUCAUCACUGGAAAGAAGCUGUUUUUGCCACAUGUGGACAGCAAGUAGACAUUUGGGAUGAACAAAGAACUAAUCCUAUAUGUUCAAUGACCUGGGGAUUUGACAGCAACAGAGGAUUGAGCAUCA
B9: chr17:82057505:82058235:-|three_prime_utr|ENSG00000169718|control|control|control (ssRNA)
RNA: GGGAGUUCUACAGUCCGACGAUCUUGGGGCCAGUGGGGGCUUCUGAACAACAGGAUACAUCUAAAUGAAGGCAGCAUCUGGGUAGACAAAAGUGGGGGCUUAGGUCCCCUCCCCACCUCCCCUAGGCGCCUCCAUAGGCAAGUCAACAGAGGAUUGAGCAUCA
B10: chr21:39174768:39175664:-|three_prime_utr|ENSG00000183527|control|control|control (ssRNA)
RNA: GGGAGUUCUACAGUCCGACGAUCUUGAUGACAACAAAUGAGAUUCAGAGUAACAUUUAUACAUGAUCUUAAACAUUGUUUUGUAGUGUAUAUUACUUGUCCAUUCCUUUAAGGGGAGCAGCCUGCACUCUUUUGUAGAUUACUCAACAGAGGAUUGAGCAUCA
B11: chr12:49763637:49763739:+|3pUTR|ENSG00000139644|msi1_unk|FALSE|overlapping (ssRNA)
RNA: GGGAGUUCUACAGUCCGACGAUCAUGUGUAUCAAGGUACAGCAUCGUAGGGUUCCCCUAAACUUGCCCUGUUUUUGUUUUUUUAGUUUGUUAUCCCCUUACUGAGCGGCCUCUACUAGGUGGCUGUGAUUAAAUGUCCCAAGCCAACAGAGGAUUGAGCAUCA
B12: chr2:216674409:216674600:-|3pUTR|ENSG00000115461|msi1|total|mutant (ssRNA)
RNA: GGGAGUUCUACAGUCCGACGAUCUCAUGGCAUGACACAGCGGAGACCGCCUCCAACAACGAAUUUGGGGCUACGAAGAGGAACCGCGAAAAAGCAAAUCUGUUUCAACUGAUGGGAACCCUACCGCUACCGAACUUGGGGGCUCAACAGAGGAUUGAGCAUCA
B13: ENSG00000088387:stop:overlap|stop_codon|ENSG00000088387|stop_codon|NA|stop_codon (ssRNA)
RNA: GGGAGUUCUACAGUCCGACGAUCACGCUCCAUGCUCUUGUGGGCUUCUCUCCACCAUCACUCUGAAAGUGUCUUGGAGCCAAUAGUUGGUGAACGUGUCACACUUGUGUGGUAGGACCUUGAAGUCUAAGUUGCUUUCCUGAGCAACAGAGGAUUGAGCAUCA
B14: chr1:68475836:68475940:-|3pUTR|ENSG00000024526|unk|FALSE|unique (ssRNA)
RNA: GGGAGUUCUACAGUCCGACGAUCAUGCCCAGGGCCUAACUUACACUAAUUAAAUCUGAAUUUUGGGGAUGUUGUAUAGGGAUUAGUAUUUUUUUUAAUCUAGGUGAUUCCAAUAUUCAGCCAACUGUGAGAAUCAAUGGCCUACAACAGAGGAUUGAGCAUCA

Each binder was assayed against MSI1 full-length (mouse, UniProt Q61474 1-362) (assay: nsRBNS (natural sequence RNA bind-n-seq); RBNS binding buffer (assumed for nsRBNS): 25 mM Tris pH 7.5, 150 mM KCl, 3 mM MgCl2, 0.01% Triton X-100, 500 ug/ml BSA, 20 U/ml SUPERase-In, 4 C; UNK is unkempt and MSI1 is Musashi-1; names of the RNAs are library labels; protein concentration not given here; high values mean tight binding).
UniProt Q61474, sequence (Q61474 whole entry): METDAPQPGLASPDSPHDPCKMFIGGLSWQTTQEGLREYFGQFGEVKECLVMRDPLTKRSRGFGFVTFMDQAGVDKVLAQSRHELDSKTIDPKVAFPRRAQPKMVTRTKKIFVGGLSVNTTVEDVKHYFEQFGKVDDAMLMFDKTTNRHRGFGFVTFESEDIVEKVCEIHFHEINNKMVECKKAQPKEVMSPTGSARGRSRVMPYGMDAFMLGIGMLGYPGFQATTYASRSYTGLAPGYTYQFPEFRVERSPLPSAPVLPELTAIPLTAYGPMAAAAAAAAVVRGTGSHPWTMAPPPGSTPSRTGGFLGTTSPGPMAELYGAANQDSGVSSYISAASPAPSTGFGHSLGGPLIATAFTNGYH

Binder | binding signal
B1 | 0.488 enrichment R
B2 | 0.327 enrichment R
B3 | 11.3 enrichment R
B4 | 4.87 enrichment R
B5 | 3.07 enrichment R
B6 | 0.484 enrichment R
B7 | 0.46 enrichment R
B8 | 0.408 enrichment R
B9 | 0.491 enrichment R
B10 | 0.966 enrichment R
B11 | 1.57 enrichment R
B12 | 0.427 enrichment R
B13 | 0.444 enrichment R
B14 | 14.2 enrichment R
